# According to the supplement of paper PMC11417369:
# Some of the results follow.
# System: PfAP2-HC AP2 domain (GST-tagged)
# Assay: gcPBM binding intensity (ln(normalized median fluorescence intensity)); higher = stronger DNA binding
# Summary of the method: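 GST-fused DNA-binding domains of P. falciparum, expressed in E. coli, were applied at about 25 μg on average for 1 h to an Agilent 4 × 180k array of primer-extended double-stranded 36-bp intergenic genomic probes and negative controls. Binding intensity is the highest Masliner-normalised natural-log median intensity across replicate spots of either probe orientation, measured with Alexa488 anti-GST antibody and a 488 nm scan.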
row,Sequence,gcPBM binding intensity (ln)
1,CTAATTCGTATATGCTGTACCTTTTTCTTACGACTA [XGTACX_site4392],10
2,ATATGGAATGATCATAGTACATAATTTAAAATTTTA [XGTACX_site3568],9.63
3,ACCCTATTTATATATACACACACATATATAAATAAA [CACACA_site8980],10
4,AACATATATAATATTTGTACTTATATACAAAATATG [XGTACX_site7502],9.64
5,TATTTTTTCTTAAACACACACATATAGATTTATAAC [CACACA_site7354],10
6,TGTCCTTATTGGCACACACACATATAAGAAATTTAA [CACACA_site5724],9.97
7,TTTTTTAAAGCCTGTTCATCATCCTTACCTATCAAC [GTGCAC_negctrl_site452],9.49
8,AAAGTATACAATGACGCATGCATATATATATACATA [TGCATGCA_site429],9.83
9,ATTTATTTATCTAGCTATTCACCATTTTCTTTTGTT [CACACA_negctrl_site1259],9.8
10,ATAGGATGTTTGCACTGTACCAAAAAATGAGCTGCA [XGTACX_site2825],9.59
11,ATCAGATATATATATTGTACATTTATATATAAATCA [XGTACX_site1960],9.52
12,ATTAAAAATTATATTTTATAAAAATTAAAAGAAATA [CACACA_negctrl_site65],9.23
13,ACTTTTTTGAACAACGTGCACGTATTCATAACAAAA,9.46
14,TTTTCTTTATTATAATGTACTCACAAATAAATATAA [XGTACX_site7298],9.39
15,CTATAATAGAAGTGTACACACATATTTATGTCTGTA [CACACA_site7462],9.88
16,TTTCATTTTAGAAGTACACACAAAAAATAAAATAAT [CACACA_site2141],9.8
17,AATATCACATTCCACGGTACACACTAAAAGAAAAAT [XGTACX_site7653],10.1
18,ATAAATACGATTAATTAGGTTTGTATAAATTAAATT [GTGCAC_negctrl_site635],9.53
19,TCATGTAGTAAAAACTGTACAAATTATTTATCATGT [XGTACX_site1727],9.61
20,ATAACTTTTGCGCGTACACACATTTATCCTCTTTAT [CACACA_site209],10.3
21,CTTAAAAACAAAAATGCACACATAATAAGCATATGT [CACACA_site9149],9.79
22,ATTAAACTCATTAAGAGTACAGATAACATTAAAGTA [XGTACX_site8697],9.61
23,TGAAATTAGATATATACACACATATAGATTTATATG [CACACA_site7619],9.84

row,Sequence,gcPBM binding intensity (ln)
1,AAAATTGTGAAAGGGAAGATGATCAAATTGTTAAGG [CACACA_negctrl_site1492],9.8
2,TATAATGGTAAAAACACACAAATATGAAGATGTTAA [CACACA_site6479],9.83
3,GATGGGCAAATTTACTGTACTTTTATAATATTTTTT [XGTACX_site4830],9.78
4,AAAAAAAATTATATTTGTACGCATTAAAAAATCTAA [XGTACX_site1616],9.45
5,GTACCTATAAATATTACACACATTTTCATTTTTAAC [CACACA_site7022],9.88
6,TTAAAAAAAAATAAAGGTACACGGAGAAATCCTTTT [XGTACX_site7509],9.39
7,ATATATTTATTATTAGGTACACATATATATATATAT [XGTACX_site5045],9.79
8,AACCACCACACCATCACACATAAGATTAGACGAGTA [CACACA_site6063],9.97
9,TTATATAGAATTAATTTCTTTTTTTTCTTTTTTAAA [CACACA_negctrl_site1308],9.29
10,TGTAGTAATGCTTATTGTACATATACATTTCTTACA [XGTACX_site219],9.64
11,ATTTTTTTTTTTTTTTCATGAAATTTTTTTTTTTTT [CACACA_negctrl_site1069],9.67
12,AAATATTTTTTAATTGTTCACTTGGTGGATCATTAA [CACACA_negctrl_site922],9.41
13,TATCCATTATTTAAAAGTACAAAAAACGATTTACAC [XGTACX_site2979],9.51
14,TTTTTTTTTCGCTTTTGTACACATTTTATAGAACAG [XGTACX_site2416],9.64
15,TATTATATATATGGAAGTACAGGTATATCGTTTTTC [XGTACX_site3771],9.66
16,TTTTCCCTTAACCTCTGTACATATAATTTTCTTTCC [XGTACX_site4180],9.7
17,TAGAATATGTTTAGTTGTACAAAACAAAATGGAATT [XGTACX_site5293],9.9
18,CACATAAAAAAATAAACACACATATGTATATATATA [CACACA_site3177],10.2
19,ATTTATTTTTTGTGTTCACACATTAGTATCATCTAT [CACACA_site5274],9.86
20,TGCTTTTCTTTTTGCACACTTATGCATATATATATA [CACACA_site2583],9.93
21,AAATAAGAAAAAGCGCGTACACATAACATTTTTATA [XGTACX_site8807],9.97
22,TTTATTCAAGGAATAGTGCATAATAATAAGTATTAT,9.52
23,TGTATTCTCTTAGTAGTGCATTTGAAGATTATATAA,9.43

row,Sequence,gcPBM binding intensity (ln)
1,ATTTTTCTAAAATACTGTACAAAGGTGCATAAAAAG [XGTACX_site4425],9.54
2,TCTAATGATATATACACACACATATAGATTTATATA [CACACA_site7044],10.2
3,ATATTTATGGAATATACACACATGTATAATTATATA [CACACA_site2033],9.82
4,TTTTCTGTTTTCATTACACACCTTACAAGAACAATA [CACACA_site2158],9.6
5,GAAAACATTAAAAGTTAGATCATAAGAAAAGAATAT [GTGCAC_negctrl_site726],9.76
6,ACATTATATAAAATATGTACATATAAAAAATTCTAT [XGTACX_site1617],9.77
7,GTTCATCACATATACACATGCATATTCTAATATGTA [TGCATGCA_site809],9.87
8,CATATATGTGATAACACGCACACAAATGTATAGAAT [CACACA_site2594],10.4
9,TTATCATTTGGACACGCACACACACCGAAAAAGAAA [CACACA_site8008],10.8
10,TTTTTTGCTAAAAAGAGTACTAATAAAAAATTTATT [XGTACX_site5235],9.21
11,TTTTTGTAATTATATTAATATATATATATATATATA [CACACA_negctrl_site198],9.54
12,AATAATTTAAGGAATACACACAAGAAAAAAATAAGA [CACACA_site60],9.96
13,ACAAGAGAAGTAATTGCACACGTTGTTTCTTTTTCT [CACACA_site35],10.1
14,CCACATATACAAAACACACACACAACGTTTTAATAA [CACACA_site1978],10.7
15,ATAATAATATAAAATACACACCTATTATTTTTACAA [CACACA_site6069],9.92
16,TCACTATAGTAATTTACACACATTTGAAGAAAATGT [CACACA_site7626],9.85
17,TATTTATTTATTTATGCATGCATGAATAATTTTTAC [TGCATGCA_site31],9.62
18,ATTATTTAGAAATGAGCACACAAAAAGAAGAATTTT [CACACA_site7913],9.75
19,TTTTAAATTTTTTAAAGTACACGTCGAAAAGGTATA [XGTACX_site76],9.42
20,AAGAATTATATATTCACACAAAAAAAAAGTAAAAGA [CACACA_site5335],9.75
21,TATAATATATATATATGTACATATTATTTACATATA [XGTACX_site7312],9.64
22,TTTTAACATAGAAGTACACACATATAATCAATCATA [CACACA_site5313],9.87
23,AAAAAAAAAAAAAAGAGTACATTTATTTATATATCT [XGTACX_site2381],9.47

row,Sequence,gcPBM binding intensity (ln)
1,AATATATTAAATCTTACACACTAAAAAATATGTAAC [CACACA_site4325],9.64
2,TGTTTAACACATGTTTCAAACAAAAAAAAAAAGACA [CACACA_negctrl_site1356],9.59
3,TTTTATGAAAAATGGCTTATCTGTAAAGAAGTGGAG [CACACA_negctrl_site1586],9.43
4,ATAAAGAAAATATGGAGTACATTTATATCCAATATA [XGTACX_site3085],9.62
5,ATATTTGTAATTATTAAACACACACTAATTATATAT [CACACA_site8803],9.9
6,AAATATATACTACCGATGCACTAAATATAAACACAT [GTGCAC_site9777],9.97
7,TTAATTTTTGAAGGTACACACTAATATATTAAATAT [CACACA_site4791],9.57
8,CTTTTAATTATAAAATGTACTTAAAAATAATAATAC [XGTACX_site635],9.28
9,AAAACAGACAAACACACACACACATATATATATATA [CACACA_site3393],10.6
10,TTATCCCCCTATCATTGTACATTAATACAAACTAAA [XGTACX_site5630],9.6
11,AAAATGAAACAAATATGTACACATATAAATATTTCC [XGTACX_site54],9.78
12,TATGTAGTTTTAAAGTGTACTTATATATATTAATTG [XGTACX_site378],9.52
13,ATAAATATATATATCACACATATATAATTATATATA [CACACA_site4787],9.61
14,TACATACATATATTATGTACATATTTTATTTTTATT [XGTACX_site1642],9.85
15,TTTCTTTTAATAATTAAATATTTATTTATGATTATA [TGCATGCA_negctrl_site30],9.23
16,AAAAAAAATTCGTGTGTGCGCATATATAATATATAA,10.4
17,AAGCATACATCAAGCACACACACACCCACAGAGACA [CACACA_site4362],10.5
18,TCTATACCAGAAAAGGGTACATATTTTGGATTGAAC [XGTACX_site8402],9.53
19,ATTATGCACCAACACACACACACACTCCTAAAAAAT [CACACA_site8822],11
20,ATTGCAAGTTACTTGTGTACTTATAAGATTAAAAGA [XGTACX_site7696],9.6
